Source: paper PMC4336329 (PLoS ONE, 2015)
In all, about 310,000 compounds went through this assay and about 2,200 (0.71%) showed an effect of 50% or more. The effect is printed as a negative number. The list shows a part of the results.

What follows are molecules tested against human ether-à-go-go-related gene (hERG) potassium channel (human, UniProt Q12809) (assay: primary screen, population patch clamp on CHO cells stably expressing hERG).
Sequence of human ether-à-go-go-related gene (hERG) potassium channel (Q12809 whole entry, looked up): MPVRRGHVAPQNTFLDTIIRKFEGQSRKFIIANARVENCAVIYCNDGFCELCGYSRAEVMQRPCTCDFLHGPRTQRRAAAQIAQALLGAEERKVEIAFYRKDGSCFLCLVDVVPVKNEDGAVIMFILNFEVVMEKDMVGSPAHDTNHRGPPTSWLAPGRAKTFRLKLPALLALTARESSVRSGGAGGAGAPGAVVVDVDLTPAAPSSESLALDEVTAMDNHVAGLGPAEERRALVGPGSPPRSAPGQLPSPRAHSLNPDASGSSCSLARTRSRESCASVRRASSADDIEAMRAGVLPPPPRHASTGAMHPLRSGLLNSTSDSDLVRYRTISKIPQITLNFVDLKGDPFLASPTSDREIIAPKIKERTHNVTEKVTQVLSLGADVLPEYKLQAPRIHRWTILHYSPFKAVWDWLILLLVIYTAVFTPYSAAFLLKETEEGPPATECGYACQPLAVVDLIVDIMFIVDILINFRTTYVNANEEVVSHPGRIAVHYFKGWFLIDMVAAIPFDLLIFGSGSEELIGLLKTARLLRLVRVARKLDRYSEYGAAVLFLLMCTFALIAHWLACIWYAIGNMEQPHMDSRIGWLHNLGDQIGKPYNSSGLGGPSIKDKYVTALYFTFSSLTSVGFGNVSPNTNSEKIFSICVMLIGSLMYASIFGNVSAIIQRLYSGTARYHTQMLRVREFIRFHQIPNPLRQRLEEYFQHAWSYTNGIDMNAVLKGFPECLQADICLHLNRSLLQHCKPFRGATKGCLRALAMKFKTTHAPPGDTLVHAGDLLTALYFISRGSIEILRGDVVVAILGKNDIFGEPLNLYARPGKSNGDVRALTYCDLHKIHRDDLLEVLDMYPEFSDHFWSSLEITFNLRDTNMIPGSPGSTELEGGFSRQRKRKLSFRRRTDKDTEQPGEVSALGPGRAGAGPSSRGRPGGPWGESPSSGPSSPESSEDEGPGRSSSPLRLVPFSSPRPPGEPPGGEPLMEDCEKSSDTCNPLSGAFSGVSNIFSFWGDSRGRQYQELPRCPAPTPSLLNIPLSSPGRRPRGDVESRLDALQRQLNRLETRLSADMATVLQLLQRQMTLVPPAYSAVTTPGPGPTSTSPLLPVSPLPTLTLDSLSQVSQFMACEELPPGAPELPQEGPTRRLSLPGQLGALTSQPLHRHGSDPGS

First: Cc1ccccc1CN1CCN(C(=O)Cc2ccccc2)CC1.Cl
Second: O=C(NCCCN1CCN(Cc2ccccc2Cl)CC1)Nc1ccccc1
The “hERG current change (%, negative = inhibition) at 1uM” value of the first is higher: 18.6% for the first, -8.54% for the second.

Compared with `O=C(Cn1cnc([N+](=O)[O-])c1)NCCc1ccccc1`, `N#C/C(=C\c1cccnc1)C(=O)Nc1ccccc1[N+](=O)[O-]` is higher in “hERG current change (%, negative = inhibition) at 1uM” value: 2.82% for the first, 13.7% for the second.

Going from `NC(=O)NC(CC(=O)OCC(=O)NC(=O)NCc1ccco1)c1ccc(Cl)cc1` (stereo not shown) to `O=C(NCc1ccco1)Nc1ccccc1Cl`, the “hERG current change (%, negative = inhibition) at 1uM” value falls from 8.08% to -5.72%.

Going from `Cc1cc(=O)oc2c(C)c(OCC(=O)N3CCN(c4ccc(F)cc4)CC3)ccc12` to `COc1ccc(N2CCN(Cc3cc(=O)oc4cc(C)c(Cl)cc34)CC2)cc1`, the “hERG current change (%, negative = inhibition) at 1uM” value rises from 2.34% to 5.96%.

Compared with `O=S(=O)(c1ccc(-c2cc(C(F)(F)F)on2)s1)N1CCCC1`, `N#Cc1ccc(S(=O)(=O)N2CCN(c3ncccn3)CC2)cc1` is lower in “hERG current change (%, negative = inhibition) at 1uM” value: 7.19% for the first, 5.13% for the second.

Compared with `CCc1[nH]nc(C(=O)N2CCCC(CO)(Cc3ccc(F)cc3F)C2)c1C` (stereo not shown), `Cc1ccc(F)cc1NC(=O)N1CCN(c2ccnc3cc(Cl)ccc23)CC1` is lower in “hERG current change (%, negative = inhibition) at 1uM” value: 16.4% for the first, -31.8% for the second.

Going from `Fc1ccccc1CSc1nc2ncccc2[nH]1` to `COc1ccc(N(Cc2cc3ccccc3[nH]c2=O)S(C)(=O)=O)cc1`, the “hERG current change (%, negative = inhibition) at 1uM” value rises from 0.402% to 11.2%.

First: COC(=O)C1=C(O)/C(=C\c2ccc(CNC(=O)C(=O)Nc3ccc(C)c(C)c3)o2)N=C1C
Second: CCOC(=O)C1=C(O)/C(=C/c2cccc(OC)c2O)N=C1C
The “hERG current change (%, negative = inhibition) at 1uM” value of the first is lower: -2.4% for the first, 13.4% for the second.

Going from `COc1ccc(S(=O)(=O)NC2CC(=O)N(c3ccc4c(c3)OCCO4)C2)cc1` (stereo not shown) to `CC(C)(C)c1ccc(-c2nnc(SCC(=O)c3ccc4c(c3)OCCO4)o2)cc1`, the “hERG current change (%, negative = inhibition) at 1uM” value falls from 9.65% to 7.2%.

Going from `COc1ccccc1OC1=NS(=O)(=O)c2ccccc21` to `CCCN(CC(=O)Nc1ccccc1OC)C(=O)c1ccc(COc2ccccc2)o1`, the “hERG current change (%, negative = inhibition) at 1uM” value falls from 6.53% to 1.84%.

Compared with `Cc1c(C)c2c(OCC(=O)N[C@@H](C(=O)O)c3ccccc3)cc3c(c2oc1=O)CCC(C)(C)O3`, `COCCn1cc(C(=O)c2ccccc2OCC(=O)Nc2cc(C)on2)cc(C#N)c1=O` is lower in “hERG current change (%, negative = inhibition) at 1uM” value: 12.3% for the first, 6.23% for the second.

Compared with `O=C(CSc1nc(C2CC2)nc2ccccc12)Nc1cccc(O)c1`, `O=C(CSc1nc2ccccc2s1)NNC(=O)Nc1ccc(Cl)c(Cl)c1` is higher in “hERG current change (%, negative = inhibition) at 1uM” value: 5.02% for the first, 5.05% for the second.

Going from `CC(=O)N/N=C\c1cccc(OC/C=C/c2ccccc2)c1` to `CCN(CC)S(=O)(=O)c1ccc(NC(=O)COC(=O)CNS(=O)(=O)/C=C/c2ccccc2)cc1`, the “hERG current change (%, negative = inhibition) at 1uM” value falls from 11.6% to 3.26%.

Going from `COc1ccc(-c2cnc[nH]2)cc1` to `COc1ccc(-c2cn(Cc3cccc(OC)c3)nn2)cc1`, the “hERG current change (%, negative = inhibition) at 1uM” value falls from 16.9% to 3.38%.

Going from `CN(CC(=O)Nc1cccc(F)c1)C(=O)CCCc1cccs1` to `Cc1cccc(NC(=O)CCNS(=O)(=O)c2cccc3nsnc23)c1`, the “hERG current change (%, negative = inhibition) at 1uM” value rises from 0.946% to 18.7%.

Compared with `Cn1nc(-c2ccccc2)c(/C=N/O)c1Cl`, `O=C(/C=C/c1ccccc1O)c1ccc(Cl)cc1` is higher in “hERG current change (%, negative = inhibition) at 1uM” value: 9.02% for the first, 9.95% for the second.

Going from `Cc1ccc(-c2cc(C(F)(F)F)c(C#N)c(=O)[nH]2)cc1` to `O=C1CCCc2c1nc(-c1ccc(F)cc1)n2O`, the “hERG current change (%, negative = inhibition) at 1uM” value rises from 1.83% to 4.51%.

First: Cc1ccccc1NC(=O)CCNS(=O)(=O)c1cccc2nsnc12
Second: Cc1ccccc1OCCCC(=O)NCc1ccco1
The “hERG current change (%, negative = inhibition) at 1uM” value of the first is higher: 11.5% for the first, 1.42% for the second.

First: COc1ccc(C)cc1NC(=O)CSc1ccc(-c2ccccn2)nn1
Second: COc1ccc(OC)c(NC(=O)c2cccc(S(=O)(=O)N(Cc3ccccc3)c3ccccc3OC)c2)c1
The “hERG current change (%, negative = inhibition) at 1uM” value of the first is higher: 20.3% for the first, 5.17% for the second.

First: Cc1ccc(N2C(=O)SC(N(CC(=O)O)c3cccc(C)c3)C2=O)cc1 (stereo not shown)
Second: CCOC(=O)c1ccc(N2C(=O)C=CC2=O)cc1
The “hERG current change (%, negative = inhibition) at 1uM” value of the first is higher: -0.336% for the first, -8.86% for the second.

First: O=C(O)c1cccc(S(=O)(=O)N(Cc2ccccc2)c2ccc(Cl)cc2)c1
Second: O=C(Nc1cccc(C(=O)O)c1)/C(=C\c1ccccc1Cl)NC(=O)c1ccco1
The “hERG current change (%, negative = inhibition) at 1uM” value of the first is higher: 15.8% for the first, 7.26% for the second.

Going from `CCCNCc1cc(Cl)c(OCC)c(Cl)c1.Cl` to `CCCNc1nc(Nc2ccc(C)c(Cl)c2)c2cnn(C)c2n1`, the “hERG current change (%, negative = inhibition) at 1uM” value falls from 17% to 16.1%.

Compared with `Cc1ccc(N/N=C(\C#N)C(=N)N2CCCCC2)cc1`, `O=C(NCc1ccco1)C(=O)c1cn(CC(=O)N2CCCC2)c2ccccc12` is lower in “hERG current change (%, negative = inhibition) at 1uM” value: -3.22% for the first, -8.79% for the second.

Compared with `O=C(Nc1cnccn1)C1c2ccccc2Oc2ccccc21`, `O=C(COc1ccccc1)NC1CCN(Cc2ccccc2)CC1` is lower in “hERG current change (%, negative = inhibition) at 1uM” value: 0.161% for the first, -8.39% for the second.

Going from `NC(N)=NC(N)=Nc1ccccc1` to `CC(=N\NC(=O)c1ccccc1)/C(=N/O)C(=O)Nc1ccccc1`, the “hERG current change (%, negative = inhibition) at 1uM” value rises from 3.8% to 13.7%.

First: COc1cc(CCCN2CCNC[C@@H]2Cc2ccccc2)cc(OC)c1OC
Second: Cc1ccc(S(=O)(=O)N2CCN(C(=O)COC(=O)CCc3ccccc3)CC2)c(C)c1
The “hERG current change (%, negative = inhibition) at 1uM” value of the first is lower: 10.8% for the first, 14.9% for the second.

Going from `Cc1cccc(C(=O)NNC(=O)C(=O)NC(C)(C)C)c1` to `CSCCNC(=O)c1ccc(C(C)(C)C)cc1`, the “hERG current change (%, negative = inhibition) at 1uM” value falls from 5.95% to 2.85%.

Going from `COc1ccc(NC(=O)C2C3C=CC4(O3)C2C(=O)N(CCCN2CCCC(C)C2)C4C(=O)NC2CCCCC2)cc1` (stereo not shown) to `CCc1ccc(NC(=O)C2CCN(S(=O)(=O)c3ccc4c(c3)NC(=O)CO4)CC2)cc1`, the “hERG current change (%, negative = inhibition) at 1uM” value falls from 17% to 15.5%.

Compared with `NC1=NC[C@H](CC2CCCCC2)N1CCc1cc(C(F)(F)F)cc(C(F)(F)F)c1`, `C=CCn1c(SCC(=O)NCC(c2ccccc2)N(C)C)nnc1C1CCCCC1` (stereo not shown) is higher in “hERG current change (%, negative = inhibition) at 1uM” value: 9.02% for the first, 13% for the second.

Going from `Cc1c([N+](=O)[O-])cc(C(=O)Oc2ccc(Br)cc2C(=S)N2CCCCC2)cc1[N+](=O)[O-]` to `Cc1cc(CSc2ccccc2)ccc1NC(=O)c1ccc(Cl)c([N+](=O)[O-])c1`, the “hERG current change (%, negative = inhibition) at 1uM” value falls from 23.4% to 11.6%.

Going from `CCOc1ccc(OCC)c(-c2c(=O)n(OCc3ccccc3Br)c3ccccc3[n+]2[O-])c1` to `C[C@@H]([C@@H](O)c1ccccc1)N(C)C(=O)Cc1ccccc1`, the “hERG current change (%, negative = inhibition) at 1uM” value rises from 4.97% to 7.58%.

First: CCCc1nc(NCc2ccccc2)c(C#N)c2c1CCCC2
Second: O=C(Nc1ccc2c(c1)CCC2)c1ccc(Br)o1
The “hERG current change (%, negative = inhibition) at 1uM” value of the first is lower: 3.61% for the first, 4.59% for the second.

Compared with `COc1ccc(C(=O)NCC(=O)N2CCN(c3ccc(Cl)cc3)CC2)cc1`, `COc1ccccc1N1CCN(c2cc(=O)n(-c3ccc(Cl)cc3)c(=O)[nH]2)CC1` is higher in “hERG current change (%, negative = inhibition) at 1uM” value: 13.6% for the first, 20.9% for the second.

Compared with `Cc1nc(Nc2ccc3c(c2)OCCO3)c2nnn(Cc3ccccc3Cl)c2n1`, `CCC(=O)N1CCC2(CC1)Oc1ccc(Cl)cc1C(=O)C21CC(c2cccnc2)=NO1` (stereo not shown) is higher in “hERG current change (%, negative = inhibition) at 1uM” value: -3.08% for the first, 12.6% for the second.

Compared with `CN(C)C(CNC(=O)C1CCN(S(=O)(=O)c2ccccc2)CC1)c1ccccc1` (stereo not shown), `C[C@]1(C(=O)O)C=C[C@@H](Cc2ccccc2)N1C(=O)c1ccccc1` is higher in “hERG current change (%, negative = inhibition) at 1uM” value: 7.94% for the first, 8.82% for the second.

First: CCC1CCCCN1CC(=O)c1c(C)[nH]c2cc(C)ccc12 (stereo not shown)
Second: CCN(CC(=O)NC1CC1)S(=O)(=O)c1ccc(C)cc1
The “hERG current change (%, negative = inhibition) at 1uM” value of the first is lower: -1.26% for the first, 5.39% for the second.

First: O=C(O)C1C2CCC(O2)C1C(=O)Nc1cccc(Cl)c1 (stereo not shown)
Second: S=C(Nc1cccc(Cl)c1)Nc1cccc2cnccc12
The “hERG current change (%, negative = inhibition) at 1uM” value of the first is higher: 5.9% for the first, 4.76% for the second.

Going from `CCn1c(C(=O)N2CCC(C(=O)N3CCN(c4ccccn4)CC3)CC2)cc2sccc21` to `O=C(c1ccc2c(c1)N(Cc1ccc(F)cc1)CCS2)N1CCC2(CC1)OCCO2`, the “hERG current change (%, negative = inhibition) at 1uM” value rises from -24.3% to 3.78%.

Compared with `O=C(CC1NCCNC1=O)Nc1ccc([N+](=O)[O-])cc1` (stereo not shown), `CSc1ccc(C2NC(=O)CCC2[N+](=O)[O-])cc1` (stereo not shown) is lower in “hERG current change (%, negative = inhibition) at 1uM” value: 9.61% for the first, -1.11% for the second.

First: O=C(NC1CC1)C1=C[C@@H](c2csc3ccccc23)C[C@@H](OCCCCO)O1
Second: CCc1ccccc1NC(=O)CCCN1C(=O)C2CC=CCC2C1=O (stereo not shown)
The “hERG current change (%, negative = inhibition) at 1uM” value of the first is lower: 0.813% for the first, 13.2% for the second.

Compared with `COc1ccc(N2C(=O)CCC2(C#N)c2ccc(Br)cc2)cc1` (stereo not shown), `CN(C)/C=C1\SC(=S)N(c2ccc(Br)cc2)C1=O` is lower in “hERG current change (%, negative = inhibition) at 1uM” value: 8.73% for the first, 7.96% for the second.

First: Cn1c(N)c(C(=O)COC(=O)CCOc2ccc(C(C)(C)C)cc2)c(=O)n(C)c1=O
Second: COc1cc(OC)cc(C(=O)NCC(=O)Nc2ccc(C)c(Cl)c2)c1
The “hERG current change (%, negative = inhibition) at 1uM” value of the first is lower: 10.6% for the first, 12.6% for the second.

Going from `Cc1ccc2c(c1)CN1CN2Cc2cc(C)ccc21` to `COc1ccc(-c2csc(N3CCOCC3)n2)cc1OC`, the “hERG current change (%, negative = inhibition) at 1uM” value falls from 1.52% to -0.311%.

Compared with `CC(=O)Nc1cc(N=Cc2ccc(O)cc2O)c(Cl)cc1Cl`, `Cc1ccc(C(=O)N/C(=C\c2ccc(F)cc2)C(=O)NCc2ccncc2)cc1` is lower in “hERG current change (%, negative = inhibition) at 1uM” value: 9.03% for the first, -81.2% for the second.
